Results reported in the antibiotic and cytotoxicity screens of Wong et al. (2023).
The list shows a part of the results.

Key:
HSkMC = human skeletal muscle cells; experiment: cytotoxicity call (relative viability < 0.9); settings: 10 µM
HepG2 = experiment: cytotoxicity call (relative viability < 0.9); settings: 10 µM
S. aureus RN4220 = experiment: growth inhibition call (relative growth <= 0.2); settings: 50 µM

**Q.** `Cc1noc(C)c1NC(=O)N(C)C[C@@H]1OCCCC[C@@H](C)Oc2ccc(NC(=O)Nc3ccc(C(F)(F)F)cc3)cc2C(=O)N([C@H](C)CO)C[C@@H]1C` was tested. Which cytotoxicity call (HSkMC) did it give?
**A.** inactive

**Q.** And the cytotoxicity call (HepG2)?
**A.** inactive

**Q.** And the growth inhibition call (S. aureus RN4220)?
**A.** inactive

**Q.** What does the source list for `CCNC(=O)CC[C@H](N)C(=O)O`?
**A.** cytotoxicity call (HSkMC): inactive; cytotoxicity call (HepG2): inactive; growth inhibition call (S. aureus RN4220): inactive

**Q.** How did the cytotoxicity call (HSkMC) turn out when `CO[C@@H]1CN(C)C(=O)c2cc(NC(=O)CC(F)(F)F)ccc2OC[C@@H](C)N(C(=O)C2CCOCC2)C[C@@H]1C` was run?
**A.** inactive

**Q.** And the cytotoxicity call (HepG2)?
**A.** inactive

**Q.** And the growth inhibition call (S. aureus RN4220)?
**A.** inactive

**Q.** For `C[C@H]1CN([C@@H](C)CO)C(=O)c2cc(NS(=O)(=O)c3cn(C)cn3)ccc2O[C@@H]1CN(C)Cc1ccccc1`, which cytotoxicity call (HSkMC) is on record?
**A.** inactive

**Q.** What about the cytotoxicity call (HepG2) of the same molecule?
**A.** inactive

**Q.** And the growth inhibition call (S. aureus RN4220)?
**A.** inactive

**Q.** What does the source list for `Cc1ccc(S(=O)(=O)N(C)C[C@@H]2Oc3ccc(NC(=O)CCCN(C)C)cc3C(=O)N([C@H](C)CO)C[C@H]2C)cc1`?
**A.** cytotoxicity call (HSkMC): inactive; cytotoxicity call (HepG2): inactive; growth inhibition call (S. aureus RN4220): inactive

**Q.** Which results are given for `Cc1cccc(NC(=O)Nc2ccc3c(c2)C(=O)N(C)[C@@H]2CC[C@H](CC(=O)NCc4ccccc4Cl)O[C@@H]2CO3)c1`?
**A.** cytotoxicity call (HSkMC): inactive; cytotoxicity call (HepG2): inactive; growth inhibition call (S. aureus RN4220): inactive

**Q.** What does the source list for `C[C@H](CO)N1C[C@H](C)[C@H](CN(C)S(=O)(=O)c2ccccc2)Oc2ccc(NC(=O)CCN3CCOCC3)cc2C1=O`?
**A.** cytotoxicity call (HSkMC): inactive; cytotoxicity call (HepG2): inactive; growth inhibition call (S. aureus RN4220): inactive

**Q.** What does the source list for `CCNC(=O)[C@H]1[C@H](CO)[C@H]2Cn3c(ccc(-c4ccccc4OC)c3=O)[C@H]2N1S(C)(=O)=O`?
**A.** cytotoxicity call (HSkMC): inactive; cytotoxicity call (HepG2): inactive; growth inhibition call (S. aureus RN4220): inactive

**Q.** `CC(=O)N(C)C[C@@H]1Oc2cc(C#CCN(C)C)ccc2S(=O)(=O)N([C@H](C)CO)C[C@@H]1C` was tested. Which cytotoxicity call (HSkMC) did it give?
**A.** inactive

**Q.** And the cytotoxicity call (HepG2)?
**A.** inactive

**Q.** And the growth inhibition call (S. aureus RN4220)?
**A.** inactive

**Q.** Which cytotoxicity call (HSkMC) does the source give for `C=CCC[C@@H](Cc1ccc(F)cc1)C(=O)OC[C@H](Cc1c[nH]c2ccccc12)NC(=O)[C@@H](CC=C)CC(=O)N[C@@H](CO)Cc1ccccc1` here?
**A.** inactive

**Q.** And the cytotoxicity call (HepG2)?
**A.** active

**Q.** What about the growth inhibition call (S. aureus RN4220) of the same molecule?
**A.** inactive
